Laboratory results reported in PubChem BioAssay AID504332 (National Center for Advancing Translational Sciences (NCATS), 2011).
Out of some 350,000 compounds screened, about 31,000 (8.9%) were called active. The inconclusive results got no clear call from the source; some entries with a clear call stand among them for comparison. The call rests on the fitted dose curve; in most records, active means well fitted inhibition curve with a large enough effect; inconclusive means small, poorly fitted or top-dose-only effect; inactive means no such curve, though single readings can be large or run the other way. A potency beside an inconclusive call is a rough fit, not a confirmed value.

target: Histone-lysine N-methyltransferase EHMT2 (Homo sapiens) (UniProt Q96KQ7); test: qHTS Assay for Inhibitors of Histone Lysine Methyltransferase G9a; conditions: G9a H3K9 monomethylation, AlphaScreen, 2 h; activity, negative = inhibition: at 59 µM (top of the series) unless noted; further: nearly all actives have a fitted effect of over 75% in size
Outline: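 Compounds were preincubated with 20 nM G9a for 15 min, after which biotinylated H3K9 peptide (500 nM) and SAM (20 uM) started a 2 h room-temperature reaction. Monomethylated product was quantified by antibody-based AlphaScreen chemiluminescence.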
On the % scale 0 is the no-effect control and ±100 the full control effect; potency means the concentration at half of the fitted maximal effect; tags describe the fitted curve by direction and shape.

Sequence of UniProt Q96KQ7 (Q96KQ7 whole entry, looked up): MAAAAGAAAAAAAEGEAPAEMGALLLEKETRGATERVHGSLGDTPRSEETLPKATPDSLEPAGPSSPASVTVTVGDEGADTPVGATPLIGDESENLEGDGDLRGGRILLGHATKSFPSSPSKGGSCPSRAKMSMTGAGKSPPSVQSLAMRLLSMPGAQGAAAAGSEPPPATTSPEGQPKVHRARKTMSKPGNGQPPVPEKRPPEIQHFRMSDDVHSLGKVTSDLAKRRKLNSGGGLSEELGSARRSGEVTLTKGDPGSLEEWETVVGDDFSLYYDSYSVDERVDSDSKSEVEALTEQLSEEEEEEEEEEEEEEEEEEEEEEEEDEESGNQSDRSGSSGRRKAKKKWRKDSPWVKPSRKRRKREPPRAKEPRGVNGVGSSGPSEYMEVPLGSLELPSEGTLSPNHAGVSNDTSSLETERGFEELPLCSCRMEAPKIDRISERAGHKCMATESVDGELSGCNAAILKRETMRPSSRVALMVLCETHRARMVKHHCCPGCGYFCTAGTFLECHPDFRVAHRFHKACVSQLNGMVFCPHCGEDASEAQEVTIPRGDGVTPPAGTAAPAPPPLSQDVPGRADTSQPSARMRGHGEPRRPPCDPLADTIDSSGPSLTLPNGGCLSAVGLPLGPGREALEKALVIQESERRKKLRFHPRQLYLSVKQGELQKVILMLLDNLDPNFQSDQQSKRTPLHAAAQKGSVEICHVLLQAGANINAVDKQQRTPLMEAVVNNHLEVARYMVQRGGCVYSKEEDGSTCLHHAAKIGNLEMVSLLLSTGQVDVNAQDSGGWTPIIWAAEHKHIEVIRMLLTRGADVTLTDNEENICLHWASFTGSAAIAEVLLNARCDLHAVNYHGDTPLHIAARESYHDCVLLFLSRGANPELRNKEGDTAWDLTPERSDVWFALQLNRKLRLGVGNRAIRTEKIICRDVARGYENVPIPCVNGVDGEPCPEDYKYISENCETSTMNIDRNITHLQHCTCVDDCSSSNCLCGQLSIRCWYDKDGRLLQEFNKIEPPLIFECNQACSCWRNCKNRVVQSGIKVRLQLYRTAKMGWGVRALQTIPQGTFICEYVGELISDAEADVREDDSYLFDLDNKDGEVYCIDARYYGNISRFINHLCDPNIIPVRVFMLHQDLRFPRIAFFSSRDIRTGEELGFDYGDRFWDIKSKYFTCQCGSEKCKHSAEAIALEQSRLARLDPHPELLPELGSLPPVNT

Compound | Potency | activity, negative = inhibition
CCOc1ccc(N(C)S(=O)(=O)c2ccc(C)c(C(=O)OCC(=O)c3c[nH]c4ccccc34)c2)cc1 | inconclusive: 17.8 µM [inhibitor, partial curve, poor fit] | 
Cc1cc(OC(C)C(=O)Nc2ccc(S(=O)(=O)Nc3onc(C)c3C)cc2)cc(C)c1Cl (configuration not stated) | inconclusive: 79.4 µM [inhibitor, single point] | 
O=C(NCCN1CCOCC1)c1cc2ccccc2o1 | inconclusive: 89.1 µM [inhibitor, single point] | 
CCOc1cc(/C=C2/C(=O)ON=C2C)ccc1O | active: 50.1 µM | 
CCCc1ncc(C(O)c2ccc(OC)cc2)n1C (configuration not stated) |  | inactive: -4.23% [at 102 µM]
CCN(CC)c1ccc(/C=N/N2CCOCC2)c(O)c1 | inconclusive: 28.2 µM [inhibitor, single point] | 
COc1ccc(C2C(C(=O)Nc3cc(C)on3)c3ccccc3C(=O)N2C)cc1OC (configuration not stated) |  | inactive: -20.6% [at 102 µM]
COc1ccc(CCNC(=O)CC2SC(=NCc3ccccc3)NC2=O)cc1 (configuration not stated) | inconclusive: 89.1 µM [inhibitor, single point] | 
Fc1ccc(NC(=S)Nc2cccc3cnccc23)cc1 | active: 35.5 µM | 
O=C(COC(=O)c1c(Cl)ccc(Cl)c1Cl)NC1CCS(=O)(=O)C1 (configuration not stated) |  | inactive: 5.15% [at 102 µM]
CCOc1ccccc1N1CCN(Cc2ccc(Br)s2)CC1 | inconclusive: 31.6 µM [inhibitor, single point] | 
COc1ccc(CNc2ccc(S(N)(=O)=O)cc2)cc1 |  | inactive: 25.4% [at 102 µM]
O=C(Oc1cccc(F)c1)c1ccc2c(=O)n3c(nc2c1)CCC3 | inconclusive: 50.1 µM [inhibitor, partial curve] | 
Cc1cc2c(cc1S(=O)(=O)N(CCN(C)C)Cc1ccco1)OCC(=O)N2 |  | inactive: -2.71%
COc1ccc(CCNC(=O)c2ccc(-c3cccc([N+](=O)[O-])c3)o2)cc1OC | inconclusive: 35.5 µM [inhibitor, single point] | 
COc1cc(C(F)(F)F)c(C(=O)NCc2cccc(Cl)c2)cn1 | active: 79.4 µM | 
CC(C)(C)C1CCc2c(sc(NC(=O)c3cc(C4CC4)on3)c2C#N)C1 (configuration not stated) | active: 79.4 µM | 
COc1ccc(C(CNC(=O)CSc2ccc(Br)cc2C)N2CCOCC2)cc1 (configuration not stated) | inconclusive: 89.1 µM [inhibitor, partial curve, poor fit] | 
Cc1cccc(N2C(=O)CC(Sc3nnc(C)s3)C2=O)c1 (configuration not stated) | active: 10 µM | 
O=C(c1ccc2c(c1)N(Cc1ccccc1F)C(=O)c1ccccc1S2=O)N1CCOCC1 (configuration not stated) |  | inactive: -39.7%
COc1cc(C(=O)OCCNC(=O)c2ccncc2)cc(OC)c1OC | inconclusive: 39.8 µM [inhibitor, single point] | 
Cc1ccc(S(=O)(=O)N2CCCCC2)cc1C(=O)N1CCCCCC1 |  | inactive: 24.8%
O=C1OC(Nc2ccc3ncccc3c2)c2ccccc21 (configuration not stated) | inconclusive: 0.501 µM [inhibitor, full curve, poor fit] | 
N#C/C(=C(/O)CSc1ccccn1)c1nc2ccccc2s1 | active: 44.7 µM | 

Compound | Potency | activity, negative = inhibition
Cc1ccc(-n2ncc3c(N4CCC(Cc5ccccc5)CC4)ncnc32)cc1 |  | inactive: 10.8%
Cc1cc(C)n2nc(SC(C)C(=O)NC3CCCCC3C)nc2n1 (configuration not stated) |  | inactive: -0.186% [at 0.501 µM]
COc1ccc(N2CC(C(=O)Nc3ccc(N4CCOCC4)cc3)CC2=O)cc1 (configuration not stated) | inconclusive: 89.1 µM [inhibitor, single point] | 
COc1ccc(/C=C(/NC(=O)c2ccc([N+](=O)[O-])cc2)C(=O)NCCCN(C)C)cc1 |  | inactive: -4.73% [at 102 µM]
COc1ccc(CNc2nc(-c3ccc4c(c3)OCO4)nc3ccccc23)c(OC)c1 |  | inactive: -4.14% [at 0.501 µM]
CCOC(=O)C(=N/O)/C(C)=N/NC(=O)C(=O)Nc1cc(Cl)ccc1Cl |  | inactive: 2.08% [at 102 µM]
CCOc1ccccc1N1CCN(C(=S)NCc2ccco2)CC1 | active: 50.1 µM | 
Cc1ccc(CN2CCc3nc(N4CCN(C)CC4)ncc3C2)s1 | inconclusive: 25.1 µM [inhibitor, partial curve, poor fit] | 
COc1ccc(NS(=O)(=O)c2cc(NC(=O)/C=C/c3cc(OC)c(OC)c(OC)c3)ccc2N2CCCCC2)cc1 | inconclusive: 79.4 µM [inhibitor, partial curve, poor fit] | 
S=c1[nH]nc(Cc2ccccc2)n1-c1ccc(Cl)cc1 | inconclusive: 2.82 µM [inhibitor, partial curve, poor fit] | 
CCNc1ncc2nc(-c3ccccc3)c(=O)n(Cc3cccc(OC)c3)c2n1 |  | inactive: 5.16% [at 0.501 µM]
N#Cc1cn(-c2ccccc2)nc1-c1ccco1 | inconclusive: 50.1 µM [inhibitor, partial curve] | 
CSCCC(NC(=O)c1ccccc1)C(=O)N1CC(C)OC(C)C1 (configuration not stated) |  | inactive: 11.9%
CCCOP(=O)(c1ccc(N(C)C)cc1)C(Nc1ccccc1)c1ccc(N(C)C)cc1 (configuration not stated) | inconclusive: 25.1 µM [inhibitor, single point] | 
COc1ccc2c(c1)c1c(c(=O)n(-c3ccccc3)c(=O)n1CC(=O)Nc1ccc(C)c(C)c1)n2C |  | inactive: -5.47%
COc1cccc(CN2CCNC(=O)C2CC(=O)O)c1OC (configuration not stated) | inconclusive: 39.8 µM [inhibitor, single point] | 
COc1ccc(C2c3ccc4ccccc4c3Oc3ncn(CCN4CCOCC4)c(=N)c32)cc1OC (configuration not stated) | inconclusive: 31.6 µM [inhibitor, partial curve, poor fit] | 
CC(C)(C)NC(=O)/C=C/c1ccc(C(F)(F)F)cc1 |  | inactive: 9.72% [at 102 µM]
CN1/C(=C/C(=O)c2nc(S(C)(=O)=O)ncc2Cl)C(C)(C)c2ccccc21 | inconclusive: 31.6 µM [inhibitor, single point] | 
O=C(Cc1ccc(Cl)cc1)Nc1cc(S(=O)(=O)N2CCOCC2)ccc1N1CCCC1 | active: 44.7 µM | 
Cc1ccc(C(O)CSc2nnc(-c3ccc4ccccc4c3)n2C)cc1 (configuration not stated) | inconclusive: 89.1 µM [inhibitor, single point] | 
CC(=O)C1=C(c2ccccc2)OC(N)=C(C#N)C1c1ccc(O)cc1 (configuration not stated) | inconclusive: 7.94 µM [inhibitor, full curve] | 
Cc1cccc(N(C)C(=O)CSc2nc3ncccc3o2)c1 |  | inactive: 14.6%
C=CCn1c(SCc2nc3sc(C(=O)O)c(C)c3c(=O)[nH]2)nnc1-c1ccccc1 |  | inconclusive: -91.5% [inhibitor]

Compound | Potency | activity, negative = inhibition
C[C@H](N)c1nnc(SCC(=O)c2ccc(Cl)cc2)o1 | inconclusive: 1 µM [inhibitor, full curve, poor fit] | 
Cn1c2cc(Br)sc2c2cnn(Cc3ccc(F)cc3)c(=O)c21 |  | inactive: -38.4% [at 12.7 µM]
CCN1C(=O)/C(=C/C=C2\N(CC)c3cc(S(=O)(=O)N(C)C)ccc3N2c2ccccc2)SC1=S | inconclusive: 7.94 µM [inhibitor, full curve, poor fit] | 
N#Cc1ccc(CSc2nc3c(c(=O)[nH]2)CCCC3)cc1 | inconclusive: 39.8 µM [inhibitor, single point] | 
COc1ccc2[nH]c(C)c(CCN(Cc3cccs3)C(=S)Nc3ccccc3OC)c2c1 | inconclusive: 31.6 µM [inhibitor, single point] | 
CCC(C)NC(=O)c1cc2c(=O)n3ccccc3nc2s1 (configuration not stated) | inconclusive: 79.4 µM [inhibitor, single point] | 
COC(=O)C1CCN(C(=O)CN2C(=O)c3ccccc3S2(=O)=O)CC1 | inconclusive: 89.1 µM [inhibitor, single point] | 
O=C(Nc1cnc2ccccc2c1)c1ccncc1 |  | inactive: -34% [at 102 µM]
CC1Cc2cc(S(=O)(=O)N3CCCC(C(=O)N4CCCCC4)C3)ccc2N1C(=O)C1CC1 (configuration not stated) |  | inactive: -2.15%
Cc1cccc(C)c1NC(=O)Nc1cccs1 | active: 50.1 µM | 
COc1cc(OC)cc(-c2nnc(SCC(=O)N3CCCC3)o2)c1 |  | inactive: 9.88%
Cc1ccc(N=Nc2c(N)nn(-c3ccccc3)c2N)cc1 |  | inactive: -50%
COc1ccc(S(=O)(=O)Cc2ccc(C(=O)N3CCc4ccccc4C3)o2)cc1 | inconclusive: 89.1 µM [inhibitor, single point] | 
COc1ccc(Cl)cc1NC(=O)CN(C)C(=O)CCNC(=O)c1ccccc1OC |  | inactive: 13.8% [at 12.7 µM]
O=C(O)c1ccccc1C(=O)Nc1ccccn1 | inconclusive: 39.8 µM [inhibitor, partial curve, poor fit] | 
O=C(NCc1nnnn1-c1ccc(F)cc1)C1CC(=O)N(c2ccc(F)cc2)C1 (configuration not stated) | inconclusive: 56.2 µM [inhibitor, partial curve, poor fit] | 
COc1cc(C(CC(=O)NCCC(C)C)N2Cc3ccccc3C2=O)cc(OC)c1OC (configuration not stated) | inconclusive: 4.47 µM [inhibitor, partial curve, poor fit] | 
O=C1/C(=C/c2ccccn2)SC(=S)N1N1CCOCC1 | active: 56.2 µM | 
O=C(N/N=C/c1ccc2ccccc2c1)c1ccc(COc2ccc3c(c2)CCC3)o1 | inconclusive: 89.1 µM [inhibitor, single point] | 
CC(C)C(=O)NC(=S)Nc1ccc(S(=O)(=O)N2CCCC2)cc1 | inconclusive: 31.6 µM [inhibitor, single point] | 
COc1ccc(NC(=S)N(CCCN2CCOCC2)Cc2cn(C)c3ccccc23)cc1 | inconclusive: 70.8 µM [inhibitor, partial curve, poor fit] | 
Nn1cc(-c2ccccc2)nc1SCC(=O)NCC1CCCO1 (configuration not stated) |  | inactive: -7.07% [at 102 µM]
O=C(CN1CCC(n2nnc3cc(F)ccc32)CC1)Nc1ccc2c(c1)CCC2 | inconclusive: 25.1 µM [inhibitor, single point] | 
CC(Cc1ccccc1)C(=O)N1CCN(C)CC1 (configuration not stated) | inconclusive: 89.1 µM [inhibitor, single point] | 
